Experimental data published in PubChem BioAssay AID485294 (National Center for Advancing Translational Sciences (NCATS), 2010).
Screen size: about 370,000 compounds; about 150 (0.041%) were called active. Inconclusive results, whose numbers are uncertain, are shown with a selection of clear calls. The call rests on the fitted dose curve; in most records, active means well fitted inhibition curve with a large enough effect; inconclusive means small, poorly fitted or top-dose-only effect; inactive means flat fitted curve, though single readings scatter. Potencies of inconclusive entries are left out as doubtful fits.

What follows are molecules tested against Beta-lactamase (Escherichia coli (strain K12)) (UniProt P00811) (assay: qHTS Inhibitors of AmpC Beta-Lactamase (assay with detergent)). Conditions: AmpC hydrolysis of nitrocefin, absorbance 480 nm, 0.01% Triton; activity change, negative = inhibition: at 114 µM (top of the series).
Chain of UniProt P00811 (P00811 whole entry, looked up): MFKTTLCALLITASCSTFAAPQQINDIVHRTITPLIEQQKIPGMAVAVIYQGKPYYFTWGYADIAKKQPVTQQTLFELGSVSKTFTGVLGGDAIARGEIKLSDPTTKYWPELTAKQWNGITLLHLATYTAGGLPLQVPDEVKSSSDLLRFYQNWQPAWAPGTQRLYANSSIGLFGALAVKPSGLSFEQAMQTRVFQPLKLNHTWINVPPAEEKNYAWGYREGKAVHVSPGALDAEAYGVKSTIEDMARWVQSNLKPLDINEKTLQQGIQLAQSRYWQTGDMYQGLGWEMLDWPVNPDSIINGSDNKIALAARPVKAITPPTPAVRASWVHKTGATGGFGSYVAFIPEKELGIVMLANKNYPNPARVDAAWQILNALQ
How it was run: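 20 mM phosphate pH 7.0 + 0.01% (detergent screen) or 0.0001% Triton X-100; 5.3 nM AmpC reagent; cpd preinc 15 min RT; nitrocefin (800 uM stock) to start; A480 q20 s × 4 min; Activity was normalised to no-enzyme and no-compound control wells.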
Further: nearly all actives have a fitted effect of over 25% in size.
Potency means the concentration at half of the fitted maximal effect; tags describe the fitted curve by direction and shape.
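Wherever activity change, negative = inhibition is given: 0% = no-compound wells and -100% = no-enzyme wells.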

SMILES	activity change, negative = inhibition	Potency
CCOc1ccc(NC(=O)C2CCN(S(=O)(=O)c3ccc4c(c3)oc(=O)n4C)CC2)cc1	inactive: 6.32%	
O=C(NCC1CCCN1S(=O)(=O)c1cccs1)c1ccccc1F (stereo not given)		inconclusive [inhibitor, full curve, poor fit]
O=C(O)c1ncn(Cc2ccc(Br)cc2)c1C(=O)O	inactive: 0.562%	
O=C(CSc1nnc(-c2ccncc2)n1-c1ccccc1)Nc1ccc(Br)cc1	inactive: -5.35%	
O=C(c1ccco1)N1CCN(C(=O)c2cn(-c3ccccc3)nc2-c2ccccc2)CC1		inconclusive [inhibitor, full curve, poor fit]
O=S(=O)(c1ccccc1)c1cnc(-c2cccnc2)nc1-c1ccccc1		inconclusive [inhibitor, partial curve, poor fit]
CCOC(=O)C1CCCN(C(=O)CS(=O)(=O)Cc2ccccc2)C1 (stereo not given)		inconclusive [inhibitor, single point]
Cc1ccccc1N(C(=O)Cc1ccsc1)C(C(=O)NC1CCCCC1)c1ccc(F)cc1 (stereo not given)		inconclusive [inhibitor, full curve, poor fit]
Cc1cc(C(=O)COC(=O)CNS(=O)(=O)c2ccc3ccccc3c2)c(C)n1-c1ccccc1		inconclusive [inhibitor, partial curve]
O=C(c1ccco1)N1CCN(Cc2cc(=O)c(OCc3cccc(Cl)c3)co2)CC1		inconclusive [inhibitor, full curve, poor fit]
O=C(C[n+]1cc(-c2ccc(Cl)c(Cl)c2)n2c1CCC2)N1c2ccccc2Sc2ccccc21		inconclusive [inhibitor, partial curve]
C=C(C)CSc1nnc([C@@H](NC(=O)OC(C)(C)C)C(C)CC)o1 (stereo not given in full)		inconclusive [inhibitor, full curve, poor fit]
Cc1ccccc1OCC(=O)NNC(=S)NC(=O)c1ccccc1[N+](=O)[O-]		inconclusive [inhibitor, single point]
COc1ccc(/C=N/NC(=O)c2ccn[nH]2)cc1COc1ccc(F)cc1		inconclusive [inhibitor, full curve, poor fit]
c1ccc(-c2cn3nc4c(nc3n2)CCCC4)cc1		inconclusive [inhibitor, full curve, poor fit]
COc1ccc(CCNC(=O)C(=O)NCC2OCCN2S(=O)(=O)c2ccc(OC)c(OC)c2)cc1 (stereo not given)		inconclusive [inhibitor, full curve, poor fit]
Fc1ccc(CNc2nc3ccccc3n3cnnc23)cc1		inconclusive [inhibitor, partial curve]
CC(C)(C)Nc1nc(NN)nc(NC(C)(C)C)n1		inconclusive [inhibitor, single point]
CC(=O)c1cc2c(cc1NC(=O)c1ccc(C)cc1)OCCO2		inconclusive [inhibitor, partial curve, poor fit]
COc1ccc(NC(=O)c2c3c(nc4ccccc24)CCC3)cc1		inconclusive [inhibitor, partial curve, poor fit]
Cc1ccc2cc(C(c3nnnn3C(C)(C)C)N3CCCC3)c(=O)[nH]c2c1C (stereo not given)	inactive: -4.64%	
CCOc1ccc(-n2cc(C(=O)c3cc(Cl)ccc3O)cc(C#N)c2=O)cc1	inactive: 7.76%	

SMILES	activity change, negative = inhibition	Potency
CCOc1cccc(C2/C(=C(/O)c3ccc4c(c3)CC(C)O4)C(=O)C(=O)N2Cc2cccnc2)c1 (stereo not given)	inactive: 2.19%	
Cc1nc2ccccc2c(=O)n1CC(=O)N1CCOCC1		inconclusive [inhibitor, partial curve, poor fit]
Brc1ccc(-n2cnc(-c3ccccc3)c2)cc1	inactive: 0.497%	
Cc1ccc[n+](C(C)C(=O)Nc2ccc(C)c(C)c2)c1 (stereo not given)		inconclusive [inhibitor, single point]
Cc1ccc(C(=O)O/N=C(\N)Cc2cccs2)c(Cl)c1	inactive: -4.8%	
CCSc1ncc(/C=N/Nc2ccc(Cl)cc2)n1C		inconclusive [inhibitor, partial curve, poor fit]
Cc1cccnc1NC(=O)c1ccccc1-c1ccccc1C(=O)Nc1ncccc1C		inconclusive [inhibitor, full curve, poor fit]
Cc1cc(OCc2nn[nH]n2)c2c3c(c(=O)oc2c1)CCCC3		inconclusive [inhibitor, partial curve, poor fit]
CSc1cccc(NC(=O)c2cnccn2)c1	inactive: -8.56%	
Cc1nc2cc(NC(=O)NC(C)(C)C)ccc2n1C	inactive: 1.33%	
Cc1ccc(C2CC(=O)C(C=NCCN3CCN(C(=S)Nc4ccc(F)cc4)CC3)=C(O)C2)cc1 (stereo not given)	inactive: 3.02%	
CN(C(=O)c1ccc2c(c1)S(=O)(=O)N=C1CCCCCN12)c1ccccc1		inconclusive [inhibitor, partial curve]
CC(C)n1nnnc1SCC(=O)Nc1ccccc1F		inconclusive [inhibitor, full curve, poor fit]
CCn1cc([N+](=O)[O-])c(C(=O)N2N=C(c3ccc(OC)cc3OC)CC2c2ccccc2O)n1 (stereo not given)		inconclusive [inhibitor, partial curve]
COc1cc2c(cc1OC)CN(c1nc(-c3cccnc3)nc3ccccc13)CC2	inactive: 5.64%	
COCCNC(=S)N1CCN(c2nc(-c3ccccc3)cs2)CC1		inconclusive [inhibitor, full curve, poor fit]
Nc1c(C(=O)NCCc2ccccc2)sc2nc(N3CCOCC3)c3c(c12)CCCC3		inconclusive [inhibitor, single point]
CCOC(=O)c1cnc(-c2ccccc2)nc1N		inconclusive [inhibitor, single point]
Cc1ccc2nc(-c3ccc(NC(=O)CSc4ccccc4)cc3)[nH]c2c1	inactive: -2.71%	
Oc1ccc(-c2n[nH]c(=S)n2Cc2ccco2)cc1	inactive: -5.06%	
Cc1cccc(-n2c(=O)c3c(c4cc(C)ccc4n3C)n(CC(=O)Nc3ccccc3Cl)c2=O)c1		inconclusive [inhibitor, single point]
CCOC(=O)c1c(NC(=O)CSc2nncs2)sc(C)c1-c1ccccc1	inactive: 2.72%	

SMILES	activity change, negative = inhibition	Potency
O=C(CSC1=NS(=O)(=O)c2ccccc21)Nc1ccccc1		inconclusive [inhibitor, partial curve]
COCCN1Cc2cccc(C(=O)NCc3cccnc3)c2C1=O		inconclusive [inhibitor, full curve, poor fit]
CCN(CC)CC(O)COCCC12CC3CC(CC(C3)C1)C2 (stereo not given)		inconclusive [inhibitor, full curve, poor fit]
Cc1ccc(S(=O)(=O)c2cc3c(=O)n4ccccc4nc3n(CCc3ccccc3)c2=N)cc1		inconclusive [inhibitor, full curve, poor fit]
CCOc1ccc(NC(=O)Cn2sc3nc(C)cc(C)c3c2=O)cc1		inconclusive [inhibitor, partial curve]
Cc1ccccc1S(=O)(=O)Nc1ncnc2scc(-c3ccccc3)c12		inconclusive [inhibitor, full curve, poor fit]
CCCCCOC(=O)C1=C(C)NC(=O)NC1c1ccc([N+](=O)[O-])cc1 (stereo not given)		inconclusive [inhibitor, full curve, poor fit]
COc1ccc([N+](=O)[O-])cc1NC(=O)c1ccc(-n2nc(C)cc2C)cc1	inactive: -14.1%	
Cc1cccc(OCCCSc2nc(-c3ccc(C(C)(C)C)cc3)nc3cc(=O)[nH]n23)c1C		inconclusive [inhibitor, single point]
CC(=O)Nc1cccc(-c2csc(Nc3cc(C)ccn3)n2)c1	inactive: -6.5%	
COC(=O)c1ccc(NC(CC(C)C)C(=O)OC)c([N+](=O)[O-])c1 (stereo not given)		inconclusive [inhibitor, partial curve, poor fit]
Cn1c(CO)c(-c2ccccc2)c2cc([N+](=O)[O-])ccc21		inconclusive [inhibitor, full curve, poor fit]
COc1ccc(CC(=O)OCC(=O)Nc2ccc(Cl)c(S(=O)(=O)N(C)C)c2)cc1		inconclusive [inhibitor, full curve, poor fit]
COc1ccc(CN2CCN(C(=O)c3ccco3)CC2)cc1OCc1ccccc1		inconclusive [inhibitor, partial curve, poor fit]
CCOC(=O)c1ccc(-n2c(CCC(=O)O)ccc2-c2ccc(F)cc2)cc1	inactive: -9.81%	
COC(=O)c1ccccc1NC(=O)CSc1nnc(C(C)NC(=O)c2ccc(Cl)cc2Cl)n1C (stereo not given)		inconclusive [inhibitor, partial curve]
CC(C)(C)C(=O)NC(NC(=S)Nc1ccc(S(N)(=O)=O)cc1)C(Cl)(Cl)Cl (stereo not given)		inconclusive [inhibitor, full curve, poor fit]
COc1ccc(N(C(=O)c2ccco2)C(C(=O)NC2CCCC2)c2cc(OC)c(OC)c(OC)c2)cc1 (stereo not given)		inconclusive [inhibitor, full curve, poor fit]
Cc1cc(C(=O)COC(=O)Cc2n[nH]c(=O)c3ccccc23)c(C)n1-c1ccc2c(c1)OCO2		inconclusive [inhibitor, full curve]
CC(C)OCCCn1c(SCC(N)=O)nc2c(sc3ccccc32)c1=O	inactive: 4.14%	
Cc1nn(CCC(=O)NCc2cccc(Br)c2)c(=O)c2nn(-c3ccccc3)c(C)c12		inconclusive [inhibitor, partial curve]
